The values below come from a collection of fitness landscapes (doi:10.1016/j.celrep.2020.107928).

B1: Caulobacter ParB omega fusion; a variant is named by its letters at X, in order, B8GW30 (parent)
chain: MESVVVGEPGMSEGRRGLGRGLSALLGEVDAAPAQAPGEQLGGSREAPIEILQRNPDQPRRTFREEDLEDLSNSIREKGVLQPILVRPSPDTAGEYQIVAGERAWRAAQRAGLKTVPIMVRELDDLAVLEIGIIENVQRADLNVLEEALSYKVLMEKFERTQENIAQTIGKSXSHVANXMRLLXLPDEVQSYLVSGELTAXHARAIAAAADPVALAKQIIEGGLSVRETEALARKAPNLSAGKSKGGRPPRVKDTDTQALESDLSSVLGLDVSIDHRGSTGTLTITYATLEQLDDLCNRLTRGI

The full ranking holds about 81,000 sequences; the median of “one-hybrid fitness for binding NBS DNA” is about -0.1, and the highest 2% start at about 0.36. The list shows a part of the results. Some results are limits rather than exact numbers.

In the test the parent is B1. The experiment in a line: one-hybrid fitness for binding NBS DNA (the Noc-binding site; scaled: cognate 1, non-cognate 0); higher = stronger binding. The following applies: with NBS DNA site. The method in brief:
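On M9-minus-histidine containing 0.1 mM IPTG and 5 mM 3-AT, E. coli USO cells with a HIS3 reporter, site 19 bp from the promoter, grew 48 hours at 37°C to select Caulobacter ParB libraries randomised at four specificity codons. Plasmids from before and after were Illumina-sequenced, with three replicate libraries pooled and variants under 10 reads left out. Fitness is the log change in variant-to-wild-type read ratio, rescaled against cognate and non-cognate.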
In the case of HPPR, the “one-hybrid fitness for binding NBS DNA” value was no more than 0.2.
For SCYY, the “one-hybrid fitness for binding NBS DNA” value is no more than 0.2.
Consider KLYG, for which the “one-hybrid fitness for binding NBS DNA” value was no more than 0.2.
The figure for YNKE is no more than 0.2; for EFDS it is no more than 0.2.
As for AAQR, the “one-hybrid fitness for binding NBS DNA” value is no more than 0.2.
As to RKWH, the “one-hybrid fitness for binding NBS DNA” value is no more than 0.2.
For the variant KKMG, the “one-hybrid fitness for binding NBS DNA” value was no more than 0.2.
The figure for KQRF is no more than 0.2.
CQAG: the “one-hybrid fitness for binding NBS DNA” value was no more than 0.2.
Take KNVS: the “one-hybrid fitness for binding NBS DNA” value was no more than 0.2.
For the variant LKVN, the “one-hybrid fitness for binding NBS DNA” value was no more than 0.2.
To EFEK belongs no more than 0.2; to NKAG, no more than 0.2.
With WKRR, the “one-hybrid fitness for binding NBS DNA” value was no more than 0.2.
APKN: the “one-hybrid fitness for binding NBS DNA” value is no more than 0.2.
Take RGNH: the “one-hybrid fitness for binding NBS DNA” value was no more than 0.2.
For FMYT, the “one-hybrid fitness for binding NBS DNA” value is no more than 0.2.
As to TMYT, the “one-hybrid fitness for binding NBS DNA” value is no more than 0.2.
With RGTG, the “one-hybrid fitness for binding NBS DNA” value was no more than 0.2.
For VNAG, the “one-hybrid fitness for binding NBS DNA” value was no more than 0.2.
On to VTTQ, for which the “one-hybrid fitness for binding NBS DNA” value is no more than 0.2.
The figure for VPRC is no more than 0.2.
In the case of GEAC, the “one-hybrid fitness for binding NBS DNA” value is no more than 0.2.
With RNED, the “one-hybrid fitness for binding NBS DNA” value was no more than 0.2.
As for TTAP, the “one-hybrid fitness for binding NBS DNA” value was no more than 0.2.
The figure for RVDL is no more than 0.2; for GCIL it is no more than 0.2.
Turning to STIW, the “one-hybrid fitness for binding NBS DNA” value was no more than 0.2.
RMKF: the “one-hybrid fitness for binding NBS DNA” value was no more than 0.2.
Take SCYV: the “one-hybrid fitness for binding NBS DNA” value was no more than 0.2.
In the case of QQIS, the “one-hybrid fitness for binding NBS DNA” value worked out at 0.352.
ECRV: the “one-hybrid fitness for binding NBS DNA” value was no more than 0.2.
Consider PVTN, for which the “one-hybrid fitness for binding NBS DNA” value was no more than 0.2.
Take AQNN: the “one-hybrid fitness for binding NBS DNA” value is no more than 0.2.
Turning to QQMM, the “one-hybrid fitness for binding NBS DNA” value was no more than 0.2.
For TLRD, the “one-hybrid fitness for binding NBS DNA” value was no more than 0.2.
Regarding HICT, the “one-hybrid fitness for binding NBS DNA” value was no more than 0.2.
Consider WHHS, for which the “one-hybrid fitness for binding NBS DNA” value is no more than 0.2.
As to HCKN, the “one-hybrid fitness for binding NBS DNA” value was no more than 0.2.
NGRR: the “one-hybrid fitness for binding NBS DNA” value is no more than 0.2.
As to NPLS, the “one-hybrid fitness for binding NBS DNA” value was no more than 0.2.
Consider QSRN, for which the “one-hybrid fitness for binding NBS DNA” value turned out to be 0.374.
Take GSRK: the “one-hybrid fitness for binding NBS DNA” value is no more than 0.2.
The figure for APDK is no more than 0.2.
KEYD: the “one-hybrid fitness for binding NBS DNA” value is no more than 0.2.
To HCAS belongs no more than 0.2; to RVKI, no more than 0.2; to ATMI, no more than 0.2.
To MVCA belongs no more than 0.2; to NTET, no more than 0.2; to PARM, no more than 0.2.
For the variant HRYG, the “one-hybrid fitness for binding NBS DNA” value is no more than 0.2.
As to HDDS, the “one-hybrid fitness for binding NBS DNA” value was no more than 0.2.
Take RLNM: the “one-hybrid fitness for binding NBS DNA” value was no more than 0.2.
For VPLG, the “one-hybrid fitness for binding NBS DNA” value is no more than 0.2.
As to GQFL, the “one-hybrid fitness for binding NBS DNA” value is no more than 0.2.
Turning to RPTV, the “one-hybrid fitness for binding NBS DNA” value is no more than 0.2.
For RRVM, the “one-hybrid fitness for binding NBS DNA” value is 0.206.
Regarding YEKK, the “one-hybrid fitness for binding NBS DNA” value is no more than 0.2.
In the case of TWNS, the “one-hybrid fitness for binding NBS DNA” value is no more than 0.2.
Consider YVMR, for which the “one-hybrid fitness for binding NBS DNA” value was no more than 0.2.
Turning to GTKM, the “one-hybrid fitness for binding NBS DNA” value is no more than 0.2.
For the variant ERSF, the “one-hybrid fitness for binding NBS DNA” value is no more than 0.2.
Consider PRDS, for which the “one-hybrid fitness for binding NBS DNA” value is no more than 0.2.
In the case of PHQY, the “one-hybrid fitness for binding NBS DNA” value is no more than 0.2.
For the variant YWMS, the “one-hybrid fitness for binding NBS DNA” value was no more than 0.2.
Consider KSTS, for which the “one-hybrid fitness for binding NBS DNA” value is no more than 0.2.
For ASIW, the “one-hybrid fitness for binding NBS DNA” value was no more than 0.2.
Take LATI: the “one-hybrid fitness for binding NBS DNA” value is no more than 0.2.
On to IQMR, for which the “one-hybrid fitness for binding NBS DNA” value was no more than 0.2.
As to QSSP, the “one-hybrid fitness for binding NBS DNA” value was no more than 0.2.
With EAPA, the “one-hybrid fitness for binding NBS DNA” value was no more than 0.2.
Turning to MDCF, the “one-hybrid fitness for binding NBS DNA” value is no more than 0.2.
Take AAKH: the “one-hybrid fitness for binding NBS DNA” value was no more than 0.2.
With GHAR, the “one-hybrid fitness for binding NBS DNA” value is no more than 0.2.
As to WTDR, the “one-hybrid fitness for binding NBS DNA” value is no more than 0.2.
VLGS: the “one-hybrid fitness for binding NBS DNA” value is no more than 0.2.
With RYTV, the “one-hybrid fitness for binding NBS DNA” value is no more than 0.2.
As for TVWR, the “one-hybrid fitness for binding NBS DNA” value was no more than 0.2.
As for QLFW, the “one-hybrid fitness for binding NBS DNA” value was no more than 0.2.
To VDTI belongs no more than 0.2; to PMCT, no more than 0.2; to MPNG, no more than 0.2.
On to QYML, for which the “one-hybrid fitness for binding NBS DNA” value is no more than 0.2.
As to KKQM, the “one-hybrid fitness for binding NBS DNA” value is no more than 0.2.
The figure for WIKT is no more than 0.2; for HELV it is no more than 0.2; for KSVW it is no more than 0.2.
The figure for RSDN is no more than 0.2.
In the case of TNLR, the “one-hybrid fitness for binding NBS DNA” value was no more than 0.2.
On to AIQT, for which the “one-hybrid fitness for binding NBS DNA” value is no more than 0.2.
On to QCFL, for which the “one-hybrid fitness for binding NBS DNA” value was no more than 0.2.
To NRQW belongs no more than 0.2; to MYVI, no more than 0.2.
As to PVWF, the “one-hybrid fitness for binding NBS DNA” value was no more than 0.2.
For the variant GFGG, the “one-hybrid fitness for binding NBS DNA” value was no more than 0.2.
As to MRHK, the “one-hybrid fitness for binding NBS DNA” value is no more than 0.2.
As for PANM, the “one-hybrid fitness for binding NBS DNA” value was no more than 0.2.
The figure for FAFI is no more than 0.2; for WLYG it is no more than 0.2; for RCSE it is no more than 0.2.
For NRRI, the “one-hybrid fitness for binding NBS DNA” value was no more than 0.2.
As for CMQS, the “one-hybrid fitness for binding NBS DNA” value was no more than 0.2.
Take PMIP: the “one-hybrid fitness for binding NBS DNA” value is no more than 0.2.
Consider DTGT, for which the “one-hybrid fitness for binding NBS DNA” value is no more than 0.2.
For the variant ASHS, the “one-hybrid fitness for binding NBS DNA” value is no more than 0.2.
As to VWAD, the “one-hybrid fitness for binding NBS DNA” value is no more than 0.2.
SHHE: the “one-hybrid fitness for binding NBS DNA” value is no more than 0.2.
Regarding LDWR, the “one-hybrid fitness for binding NBS DNA” value was no more than 0.2.
In the case of GCPM, the “one-hybrid fitness for binding NBS DNA” value was no more than 0.2.
Turning to KTFF, the “one-hybrid fitness for binding NBS DNA” value was no more than 0.2.
On to QYHY, for which the “one-hybrid fitness for binding NBS DNA” value is no more than 0.2.
As to RNIW, the “one-hybrid fitness for binding NBS DNA” value was no more than 0.2.
For the variant GTFW, the “one-hybrid fitness for binding NBS DNA” value was no more than 0.2.
In the case of YPNC, the “one-hybrid fitness for binding NBS DNA” value is no more than 0.2.
As for FTYI, the “one-hybrid fitness for binding NBS DNA” value is no more than 0.2.
QIPD: the “one-hybrid fitness for binding NBS DNA” value is no more than 0.2.
For EKAN, the “one-hybrid fitness for binding NBS DNA” value is no more than 0.2.
To KMVG belongs no more than 0.2; to GQRS, no more than 0.2.
For DGVT, the “one-hybrid fitness for binding NBS DNA” value was no more than 0.2.
Regarding IGDT, the “one-hybrid fitness for binding NBS DNA” value is no more than 0.2.
On to QHCA, for which the “one-hybrid fitness for binding NBS DNA” value was no more than 0.2.
On to TNSF, for which the “one-hybrid fitness for binding NBS DNA” value is no more than 0.2.
PIND: the “one-hybrid fitness for binding NBS DNA” value is no more than 0.2.
Regarding QFMV, the “one-hybrid fitness for binding NBS DNA” value is no more than 0.2.
For the variant DSGW, the “one-hybrid fitness for binding NBS DNA” value is no more than 0.2.
The figure for TPCM is no more than 0.2; for RTPQ it is no more than 0.2.
For the variant PVCS, the “one-hybrid fitness for binding NBS DNA” value was no more than 0.2.
Regarding EGCT, the “one-hybrid fitness for binding NBS DNA” value is no more than 0.2.
With HTFF, the “one-hybrid fitness for binding NBS DNA” value is no more than 0.2.
To QAPV belongs no more than 0.2; to HGSC, no more than 0.2.
On to EPRC, for which the “one-hybrid fitness for binding NBS DNA” value was no more than 0.2.
For TSYE, the “one-hybrid fitness for binding NBS DNA” value was no more than 0.2.
As for ECTG, the “one-hybrid fitness for binding NBS DNA” value was no more than 0.2.
Consider IYTR, for which the “one-hybrid fitness for binding NBS DNA” value was no more than 0.2.
The figure for RVLV is no more than 0.2.
RKPY: the “one-hybrid fitness for binding NBS DNA” value was no more than 0.2.
As for PRGM, the “one-hybrid fitness for binding NBS DNA” value is no more than 0.2.
In the case of ASEC, the “one-hybrid fitness for binding NBS DNA” value was no more than 0.2.
As for EETR, the “one-hybrid fitness for binding NBS DNA” value is no more than 0.2.
The figure for YTGK is no more than 0.2.
The figure for SVDC is no more than 0.2.
As for GTGA, the “one-hybrid fitness for binding NBS DNA” value is no more than 0.2.
Consider VWDV, for which the “one-hybrid fitness for binding NBS DNA” value was no more than 0.2.
Turning to RVKM, the “one-hybrid fitness for binding NBS DNA” value was no more than 0.2.
The figure for ADCC is no more than 0.2; for RMFA it is no more than 0.2; for NNMC it is no more than 0.2.
The figure for LIRS is no more than 0.2.
